From the supplement of paper PMC12582362
Structures can show the parent of a compound that is named as a salt. The whole screen tested about 1,500 compounds, of which about 30 (2%) showed activity.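 How the source made its calls: active = robust z-score below -2; a few such results were not called.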 Some of the results follow.

What follows are molecules tested on optoTopBP1 Flp-In 293 T-REx (HEK293) cells (assay: light-induced TopBP1 condensate (nuclear foci) count, plate-normalised robust z-score vs non-control wells; higher = more TopBP1 condensates (negative = condensation inhibitor), active = hit call of the paper). Details: 10 µM; incubation time 2 h.

| Compound | light-induced TopBP1 condensate (z-score) |
| --- | --- |
| CCOC(=O)/C=C(C)/C=C/C=C(C)/C=C/c1c(C)cc(OC)c(C)c1C [Etretinate] | inactive: -0.968 |
| C=CCOc1ccccc1OCC(O)CNC(C)C (stereo not drawn) [Oxprenolol hydrochloride] | inactive: 0.694 |
| NC[C@H]1O[C@H](O[C@H]2[C@H](O)[C@@H](O[C@H]3O[C@H](CO)[C@@H](O)[C@H](N)[C@H]3O)[C@H](N)C[C@@H]2N)[C@H](N)C[C@@H]1O [Tobramycin] | inactive: -0.114 |
| Cc1c(N)c(=O)n(-c2ccccc2)n1C [Ampyrone] | inactive: 1.23 |
| CCN(CCCCOC(=O)c1ccc(OC)c(OC)c1)C(C)Cc1ccc(OC)cc1 (stereo not drawn) [Mebeverine hydrochloride] | inactive: -1.13 |
| CCN(CC)C(=O)C1(c2ccccc2)CC1CN (stereo not drawn) [Milnacipran hydrochloride] | inactive: -1.42 |
| Cc1cc(C(C)(C)C)cc(C)c1CC1=NCCN1 [Xylometazoline hydrochloride] | inactive: -0.581 |
| O=P(O)(O)C(O)(Cn1ccnc1)P(=O)(O)O [Zoledronic acid hydrate] | inactive: -1.03 |
| CCN(CC)CCOCCOC(=O)C1(c2ccccc2)CCCC1 [Carbetapentane citrate] | inactive: 0.489 |
| CCN(CC)C(=O)Nc1ccc(OCC(O)CNC(C)(C)C)c(C(C)=O)c1 (stereo not drawn) [Celiprolol hydrochloride] | inactive: -0.488 |
| N[C@H]1CONC1=O [(S)-(-)-Cycloserine] | inactive: 0.424 |
| CCCCC1C(=O)N(c2ccccc2)N(c2ccc(O)cc2)C1=O (stereo not drawn) [Oxyphenbutazone] | inactive: -0.0542 |
| COc1cc2nc(N3CCN(C(=O)C4COc5ccccc5O4)CC3)nc(N)c2cc1OC (stereo not drawn) [Doxazosin mesylate] | inactive: -0.272 |
| CC(=O)Nc1ccc(OC(=O)c2ccccc2O)cc1 [Acetaminosalol] | inactive: 0.117 |
| CCCOc1ccccc1-c1nc2[nH]nnc2c(=O)[nH]1 [Zaprinast] | inactive: 0.798 |
| CCCCCCNC(=O)n1cc(F)c(=O)[nH]c1=O [Carmofur] | inactive: -0.119 |
| CCC[C@@H]1C[C@@H](C(=O)N[C@@H]([C@H]2O[C@H](SC)[C@H](OP(=O)(O)O)[C@@H](O)[C@H]2O)[C@H](C)Cl)N(C)C1 [Clindamycin Phosphate] | inactive: 0.0741 |
| COc1ccc(Cl)cc1C(=O)NCCc1ccc(S(=O)(=O)NC(=O)NC2CCCCC2)cc1 [Glibenclamide] | inactive: -0.301 |
| Nc1nc(=O)n([C@@H]2CS[C@H](CO)O2)cc1F [(-)-Emtricitabine] | inactive: -0.614 |
| CC#C[C@]1(O)CC[C@H]2[C@@H]3CCC4=CC(=O)CCC4=C3[C@@H](c3ccc(N(C)C)cc3)C[C@@]21C [Mifepristone] | inactive: 0.723 |
| CC(C(O)c1ccc(O)cc1)N1CCC(Cc2ccccc2)CC1 (stereo not drawn) [Ifenprodil tartrate] | inactive: 0.0496 |
| CC(C)[C@H](N)C(=O)OCCOCn1cnc2c(=O)nc(N)[nH]c21 [Valacyclovir hydrochloride] | inactive: 0.915 |
| CN1CCN2c3ncccc3Cc3ccccc3C2C1 (stereo not drawn) [Mirtazapine] | inactive: -0.78 |

| Compound | light-induced TopBP1 condensate (z-score) |
| --- | --- |
| COC(=O)N/N=C/c1c[n+]([O-])c2ccccc2[n+]1[O-] [Carbadox] | inactive: -0.249 |
| CN(C(=O)CN(CCO)CC(=O)N(C)C(C)(C)Cc1ccccc1)C(C)(C)Cc1ccccc1 [Oxethazaine] | inactive: 0.718 |
| Cc1cc(C)nc(NS(=O)(=O)c2ccc(N)cc2)n1 [Sulfamethazine sodium salt] | inactive: 0.285 |
| COc1cc(NS(=O)(=O)c2ccc(N)cc2)ncn1 [Sulfamonomethoxine] | inactive: 0.424 |
| CC1(C)O[C@@H]2C[C@H]3[C@@H]4C[C@H](F)C5=CC(=O)C=C[C@]5(C)[C@@]4(F)[C@@H](O)C[C@]3(C)[C@]2(C(=O)CO)O1 [Fluocinolone acetonide] | inactive: 0.184 |
| C[C@]12CC[C@@H]3c4ccc(O)cc4C[C@@H](CCCCCCCCC[S+]([O-])CCCC(F)(F)C(F)(F)F)[C@H]3[C@@H]1CC[C@@H]2O (stereo partly drawn) [Fulvestrant] | inactive: 1.39 |
| O=C(NCCCN1CCOCC1)c1ccc(Cl)cc1 [Eprobemide] | inactive: 0.149 |
| CO/N=C(\C(=O)N[C@@H]1C(=O)N2C(C(=O)O)=C(COC(C)=O)CS[C@H]12)c1csc(N)n1 [Cefotaxime sodium salt] | inactive: 0.889 |
| C/C(=C1\CCOC(=O)S1)N(C=O)Cc1cnc(C)nc1N [Cycotiamine] | inactive: 0.795 |
| CCCCOc1cc(C(=O)OCCN(CC)CC)ccc1N [Benoxinate hydrochloride] | inactive: 0.824 |
| Clc1ccc2nsnc2c1NC1=NCCN1 [Tizanidine hydrochloride] | inactive: -1.1 |
| CC(C)Oc1ccc2c(=O)c(-c3ccccc3)coc2c1 [Ipriflavone] | inactive: -0.431 |
| CC(=O)Nc1nnc(S(N)(=O)=O)s1 [Acetazolamide] | inactive: 0.105 |
| Cc1cc2cc3c(C)cc(=O)oc3c(C)c2o1 [Trioxsalen] | inactive: 0.189 |
| CNCC(O)c1ccc(O)c(O)c1 (stereo not drawn) [Racepinephrine hydrochloride] | inactive: 0.0602 |
| CCOC1O[C@H]([C@@H](COCc2ccccc2)OCc2ccccc2)[C@H](OCc2ccccc2)[C@H]1O (stereo partly drawn) [Tribenoside] | inactive: 0.824 |
| CC(=O)Nc1c(I)c(C(=O)N[C@H]2C(O)O[C@H](CO)[C@@H](O)[C@@H]2O)c(I)c(N(C)C(C)=O)c1I (stereo partly drawn) [Metrizamide] | inactive: -0.12 |
| CCN(CC)CCNC(=O)c1ccc(N)cc1 [Procainamide hydrochloride] | inactive: 0.297 |
| CCCCCCOc1ccccc1C(N)=O [Exalamide] | inactive: -0.0804 |
| C[C@@H]1CCC[C@H](C)N1NC(=O)c1ccc(Cl)c(S(N)(=O)=O)c1 [Clopamide] | inactive: 0.858 |
| CC[C@H]1OC(=O)[C@H](C)[C@@H](O[C@H]2C[C@@](C)(OC)[C@@H](O)[C@H](C)O2)[C@H](C)[C@@H](O[C@@H]2O[C@H](C)C[C@H](N(C)C)[C@H]2O)[C@](C)(O)C[C@@H](C)CN(C)[C@H](C)[C@@H](O)[C@]1(C)O [Azithromycin] | inactive: 0.375 |
| CN[C@H]1CC[C@@H](c2ccc(Cl)c(Cl)c2)c2ccccc21 [Sertraline] | inactive: -0.889 |
| Nc1ccc(S(=O)(=O)Nc2nccs2)cc1 [Sulfathiazole] | inactive: 0.994 |

| Compound | light-induced TopBP1 condensate (z-score) |
| --- | --- |
| CC(CNC1CCCCC1)OC(=O)c1ccccc1 (stereo not drawn) [Hexylcaine hydrochloride] | inactive: -0.526 |
| Cc1ccc(-c2cc(C(F)(F)F)nn2-c2ccc(S(N)(=O)=O)cc2)cc1 [Celecoxib] | inactive: 0.651 |
| CN1CCN(CC(=O)N2c3ccccc3C(=O)Nc3cccnc32)CC1 [Pirenzepine dihydrochloride] | inactive: 0.409 |
| CC(=O)N(CC(O)CO)c1c(I)c(C(=O)NCC(O)CO)c(I)c(C(=O)NCC(O)CO)c1I (stereo not drawn) [Iohexol] | inactive: 0.77 |
| CN(CCCCCCCCCCN(C)C(=O)Oc1cccc([N+](C)(C)C)c1)C(=O)Oc1cccc([N+](C)(C)C)c1 [Demecarium bromide] | inactive: -0.616 |
| Cn1c(=O)c2c(ncn2CC2OCCO2)n(C)c1=O [Doxofylline] | inactive: 0.565 |
| CCOc1nc2cccc(C(=O)O)c2n1Cc1ccc(-c2ccccc2-c2nnn[nH]2)cc1 [Candesartan] | inactive: -0.153 |
| CCCCNC(=N)NC(=N)N [Buformin] | inactive: 1.05 |
| C[C@@](Cc1ccc(O)c(O)c1)(NN)C(=O)O [Carbidopa] | inactive: -0.878 |
| Nc1ncnc2c1ncn2[C@@H]1O[C@H](CO)[C@@H](O)[C@@H]1O [Vidarabine] | inactive: 0.447 |
| CC(=O)OC[C@H]1O[C@@H]([S-])[C@H](OC(C)=O)[C@@H](OC(C)=O)[C@@H]1OC(C)=O.CCP(CC)CC.[Au+] [Auranofin] | active: -4.74 |
| COc1cc(Nc2c(C#N)cnc3cc(OCCCN4CCN(C)CC4)c(OC)cc23)c(Cl)cc1Cl [Bosutinib] | inactive: -2.03 |
| CCCCc1oc2ccc(NS(C)(=O)=O)cc2c1C(=O)c1ccc(OCCCN(CCCC)CCCC)cc1 [Dronedarone hydrochloride] | inactive: 0.151 |
| CCC1(c2ccccc2)C(=O)NCNC1=O [Primidone] | inactive: -0.71 |
| CN(C)CCC(c1ccc(Br)cc1)c1ccccn1 (stereo not drawn) [Brompheniramine maleate] | inactive: 0.824 |
| c1ccc(-c2ccc(C(c3ccccc3)n3ccnc3)cc2)cc1 (stereo not drawn) [Bifonazole] | inactive: -0.772 |
| Oc1c(Cl)cc(Cl)c2cccnc12 [Chloroxine] | inactive: -0.15 |
| O=C1CC[C@@H](C(=O)N2CSC[C@H]2C(=O)O)N1 [Pidotimod] | inactive: -0.575 |
| O=C(c1ccc(F)cc1)C1CCN(CCn2c(=O)[nH]c3ccccc3c2=O)CC1 [Ketanserin tartrate hydrate] | inactive: 0.829 |
| CCN(CC)C(=O)c1ccc(O)c(OC)c1 [Ethamivan] | inactive: 0.0651 |
| Cc1[nH]cnc1CN1CCc2c(c3ccccc3n2C)C1=O [Alosetron hydrochloride] | inactive: -1.41 |
| O=C(Cn1c(=O)sc2ccc(Cl)cc21)N1CCN(CCO)CC1 [Tiaramide Hydrochloride] | inactive: 0.609 |
